Data from PubChem BioAssay AID686978 (National Center for Advancing Translational Sciences (NCATS), 2013).
Several values for one entry are separate records, joined by “and”; a condition that tells them apart may be missing. Identical values can stand only once. In all, about 420,000 compounds went through this assay and about 64,000 (15%) were called active. Inconclusive means that the source gave no clear call. Such entries were picked first, then a sample of the others. The call rests on the fitted dose curve; in most records, active means well fitted inhibition curve with a large enough effect; inconclusive means small, poorly fitted or top-dose-only effect; inactive means flat fitted curve, though single readings scatter. Potencies of inconclusive entries are left out as doubtful fits.

Assay: qHTS for Inhibitors of human tyrosyl-DNA phosphodiesterase 1 (TDP1): qHTS in cells in absence of CPT; further: nearly all actives have a fitted effect of over 55% in size
Settings: DT40 Tdp1-/- hTDP1 cells, no CPT, ATP luminescence, 48 h; activity change, negative = growth inhibition: at 46.2 µM (top of the series)
Summary of the method: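 Chicken DT40 Tdp1-/- cells complemented with human TDP1, screened without camptothecin (DMSO vehicle only), 400 cells/well. Compounds pin-transferred, cells incubated at 37 °C for at least 48 hr. Growth read as ATP-dependent luminescence (CellTiter-Glo, 30 min at RT).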
On the % scale 0 is the no-effect control and ±100 the full control effect; potency means the concentration at half of the fitted maximal effect; tags describe the fitted curve by direction and shape.

Compound	Potency	activity change, negative = growth inhibition
CCN(CC)C(=O)C1=C(C)N(CCC2=CCCCC2)C(=O)C(CC(=O)NCC2CCCCC2)C1 (configuration not stated)	inconclusive [inhibitor, single point]	
COc1ccc(S(=O)(=O)N2CCCN(Cc3cccc(F)c3)CC2)cc1	inconclusive [inhibitor, partial curve]	
CC(=O)Nc1ccc(C)cc1-c1nc2ccccc2n(CC(=O)Nc2cc(Cl)ccc2C)c1=O		inactive: 0.906%
Cc1cccc(NS(=O)(=O)c2ccc(C(=O)NCC(c3ccco3)N3CCCCC3)cc2)c1C (configuration not stated)	active: 23.1 µM	
CCOc1ccc(N2C(=O)CC(Sc3nc(CC(C)C)ccc3C#N)C2=O)cc1 (configuration not stated)	inconclusive [inhibitor, single point]	
O=C(CCCc1nc(-c2ccccc2Cl)no1)NC1CCCC1	inconclusive [inhibitor, partial curve]	
CCCN1Cc2cccc(C(=O)Nc3cc(C)cc(C)c3)c2C1=O	inconclusive [inhibitor, partial curve]	
CCOC(=O)Cn1nc(/C=C/c2ccc(C(C)C)cc2)ccc1=O	inconclusive [inhibitor, partial curve]	
O=C(O)CCC(=O)N1N=C(c2cccs2)CC1c1cn(-c2ccccc2)nc1-c1ccccc1 (configuration not stated)	inconclusive [inhibitor, single point]	
OCCC1CN(Cc2cnn(-c3ccccc3Cl)c2)CCN1Cc1ccsc1 (configuration not stated)		inactive: -9.77%
COc1ccc(Cl)cc1NC(=O)CCC(=O)N1CCOc2ccccc21	inconclusive [inhibitor, single point]	
O=S(=O)(CCN1CCCCC1)CCS(=O)(=O)CCN1CCCCC1		inactive: -26.8%
O=C1c2cccc3c2[C@H](CCC3)CN1[C@@H]1CN2CCC1CC2	active: 15 µM	
COc1cccc(Nc2nc(C(N)CC(C)C)cs2)n1 (configuration not stated)	inconclusive [inhibitor, single point]	
COc1ccc(NC(=O)c2ccc(-c3c(C)noc3C)c3ccoc23)cn1	inconclusive [inhibitor, single point]	
COc1ccc(Cc2nc3c4c(ncn3n2)Oc2c(ccc3ccccc23)C4c2ccc(OC)c(OC)c2)cc1 (configuration not stated)	inconclusive [inhibitor, single point]	
Cc1cc(-c2ccc(S(=O)(=O)N3CCCCC3)s2)on1	inconclusive [inhibitor, single point]	
Cc1cc(S(=O)(=O)N2CCOCC2)ccc1OCC(=O)NCC1CCCO1 (configuration not stated)		inactive: -10.5%
C=CCn1c(-c2sc(-c3ccccc3)nc2C)n[nH]c1=S	active: 23.1 µM	
CCCn1c(=O)c2[nH]c(-c3ccc(OCC(=O)Nc4ccc(C#N)cc4)cc3)nc2n(CCC)c1=O	inconclusive [inhibitor, partial curve, poor fit]	
CC(=O)Nc1ccc(OCCOc2ccc(/C=C3/C(=N)N4C=CSC4=NC3=O)cc2)cc1	active: 10.3 µM	
COc1ccc(NC(=O)Cn2c(=O)n(Cc3ccc(C(=O)NCc4ccccc4Cl)cc3)c(=O)c3ccccc32)cc1OC	inconclusive [inhibitor, full curve]	
CC1CCCN(S(=O)(=O)c2cc(C(=O)NCc3ccco3)ccc2Cl)C1 (configuration not stated)	inconclusive [inhibitor, single point]	

Compound	Potency	activity change, negative = growth inhibition
COc1ccc2c(c1)CC/C(=C\C=C\c1ccccc1OC)C2=O	inconclusive [inhibitor, single point]	
COc1ccc(CCNC(=O)c2cc(-c3ccncc3)nc3c(Cl)cccc23)cc1OC	active: 20.6 µM	
Cc1cc(C)nc(SCCc2ccncc2)n1	inconclusive [inhibitor, single point]	
CC1(C(=O)Nc2ccc(F)cc2F)CCN1C(=O)Cc1ccc(Cl)cc1Cl (configuration not stated)	inconclusive [inhibitor, single point]	
OC(c1ccc(Cl)c(F)c1)c1ncc(-c2ccccc2F)[nH]1 (configuration not stated)	inconclusive [inhibitor, single point]	
CC1CCN(C(=O)C2CCCN(S(=O)(=O)c3ccc4c(c3)CC(C)N4C(=O)C3CC3)C2)CC1 (configuration not stated)	inconclusive [inhibitor, single point]	
O=C(Nc1ccccc1Cl)c1cccc(NC(=O)C2CCCC2)c1	inconclusive [inhibitor, single point]	
NC(CSC1(c2ccccc2)c2ccccc2-c2ccccc21)C(=O)O (configuration not stated)		inconclusive: -30.2% [inhibitor]
N#Cc1nc(COc2ccccc2)oc1N1CCN(Cc2ccccc2)CC1	inconclusive [inhibitor, single point]	
O=C(Nc1nnc(-c2ccccc2)s1)c1ccccc1O	inconclusive [inhibitor, single point]	
Cc1ccc(NC(=O)C2CSC3(C)CCC(=O)N23)cc1S(=O)(=O)N1CCCCCC1 (configuration not stated)	inconclusive [inhibitor, single point]	
O=S1(=O)c2ccccc2Nc2ccccc21		inactive: -23.6%
Cc1ccc(CSc2nnc(SCC(=O)N/N=C/c3c(C)nn(-c4ccccc4)c3C)s2)cc1	inconclusive [inhibitor, partial curve]	
CCOC(=O)c1c(NC(=O)CCS(=O)(=O)c2ccccc2)sc2c1CCN(C)C2	active: 16.4 µM	
Cc1ccc(NC(=O)CSc2nc(=O)n(CCN(C)C)c3c2CCCC3)cc1Cl	inconclusive [inhibitor, single point]	
CCOc1cc(/C=C/C(=O)OCC(=O)NCCN2C(=O)CSC2=O)ccc1OCC(C)C	inconclusive [inhibitor, single point]	
COc1cc(C(c2c(C)[nH][nH]c2=O)c2c(C)[nH][nH]c2=O)ccc1OCc1ccc([N+](=O)[O-])cc1	inconclusive [inhibitor, single point]	
CCOc1ccc(NC(=O)C2(c3cccs3)CCOCC2)cc1	inconclusive [inhibitor, partial curve]	
COc1cccc(-c2nn(-c3ccc(C)cc3)cc2C(=O)N2CCN(C3CCS(=O)(=O)C3)CC2)c1 (configuration not stated)		inactive: 3.96%
O=C(CN(c1ccccc1F)S(=O)(=O)c1ccccc1)N1CCCCCC1	inconclusive [inhibitor, single point]	
COc1ccccc1-c1ncn(Cc2cccc(-c3ccccc3)c2)c1-c1ccco1	active: 16.4 µM	
O=C1C(SCCO)=C(SCCO)C(=O)c2ccccc21	active: 750 nM and active: 398 nM and active: 164 nM	
CC[n+]1c(/C=C/C=C/N(C(C)=O)c2ccccc2)sc2ccccc21	active: 20.6 µM	

Compound	Potency	activity change, negative = growth inhibition
O=C(Nc1ccccc1)N1CCC2(CC1)CCN(S(=O)(=O)c1ccccc1)CC2		inactive: -12.3%
Cc1nn(-c2ccccc2)c(C)c1Cc1ccc(O)cc1	inconclusive [inhibitor, single point]	
Cc1ccc(C(=O)Nc2nc3ccc(S(C)(=O)=O)cc3s2)o1	active: 11.6 µM	
c1ccc(Cc2nc3ccccc3o2)cc1		inactive: 4.57%
COc1cc(C(=O)N2CCN=C2c2ccccc2)cc(OC)c1OC		inactive: -3.34%
C=CC[C@@H](CC(=O)NCCO)C(=O)N[C@@H](COC(=O)[C@@H](CC=C)Cc1ccc(F)cc1)Cc1ccccc1	inconclusive [inhibitor, single point]	
CC(C)Oc1cccc(C(=O)C2CCCN(C(=O)c3cncs3)C2)c1 (configuration not stated)		inactive: -19.3%
COc1cc(CC(=O)Nc2ccc3nc(C)sc3c2)cc(OC)c1OC	inconclusive [inhibitor, single point]	
C=CCNC(=O)NC(=O)COC(=O)[C@H](C)NS(=O)(=O)c1c(C)c(C)cc(C)c1C		inactive: -6.57%
N=c1n(CC(=O)c2ccc(Br)cc2)c2ccccc2n1Cc1ccccc1	active: 6.51 µM	
Cc1cc(N2CCOCC2)nc2ccc(NC(=O)CCC(=O)N3CCN(c4ccccc4)CC3)cc12	inconclusive [inhibitor, single point]	
COc1ccc(-n2nc(C(=O)NCC(=O)NCCC3=CCCCC3)c3ccccc3c2=O)cc1	inconclusive [inhibitor, single point]	
COc1ccccc1C(=O)Nc1nc2nc(C)cc(=O)n2[nH]1	inconclusive [inhibitor, single point]	
C=CCc1ccccc1OCC(O)CN1CCN(Cc2ccc3c(c2)OCO3)CC1 (configuration not stated)	inconclusive [inhibitor, single point]	
CC(C)C(=O)N1CCC2(CC1)Oc1ccc(F)cc1C(=O)C21CC(c2ccc(Cl)cc2)=NO1 (configuration not stated)	inconclusive [inhibitor, single point]	
COc1ccc(-c2c(C#N)c(N)nc3c2c(=O)n(C)c(=O)n3C)cc1Cl	inconclusive [inhibitor, partial curve]	
O=C(CN1C(=O)COc2ccc(S(=O)(=O)NC3CCCC3)cc21)Nc1ccc(Cl)cc1F	inconclusive [inhibitor, single point]	
O=C(COc1ccc(-c2ccccc2)cc1)N/N=C/c1cc(O)ccc1Br	active: 16.4 µM	
COc1ccc(OC)c(S(=O)(=O)Nc2ccc3c(c2)n(C)c(=O)n3C)c1	inconclusive [inhibitor, single point]	
Cc1onc(-c2ccccc2)c1C(=O)OCC(=O)N(C)c1c(N)n(Cc2ccccc2)c(=O)[nH]c1=O		inactive: -0.659%
CCCCCCCCN1C(=O)[C@H](CC(=O)NCc2ccc(C)o2)C[C@@]2(C(=O)OC)CCCCC=C12	active: 20.6 µM	
